Out of some 52,000 compounds screened, about 1,700 (3.3%) were called active. Cut-off read from the data, not from the text of the source: active = survival mostly below about 52% (no sharp cut-off); inactive = mostly above about 56%. Some of the results follow.
Each molecule was assayed on Wild type (assay: S. aureus survival, RN4220 and DeltatarO strains – OD600, teichoic acid synthesis inhibitors, primary screen (AID 463173)). Details: S. aureus RN4220 wild type/DeltatarO growth, OD600, 18 h, hits give low values, screened at 18.75 µg/mL (by protocol).

| Structure (SMILES) | survival |
| --- | --- |
| CC(C)c1ccc(NC(=O)c2ccc3c(c2)CCCN3S(C)(=O)=O)cc1 | inactive: 86% |
| COc1ccc(-c2nc(C)c(CCNC(=O)C(=O)Nc3c(C)cccc3C)s2)cc1OC | inactive: 87% |
| O=C(Cn1cc(SCc2ccccc2)c2ccccc21)N1CCCCC1 | inactive: 92% |
| COc1ccc(OC)c(CCNC(=O)C2CCN(c3ncnc4c3nc3n4CCCCC3)CC2)c1 | inactive: 87% |
| CSc1ccc(CNC(=O)C2CCN(c3nnc(-n4cccc4CNc4ccc(C)cc4)s3)CC2)cc1 | inactive: 116% |
| N#Cc1c(-n2ncnc2-c2ccc(Br)cc2)sc2c1CCCCC2 | active: 2% |
| CCc1ccc(CNC(=O)CN(c2ccc(C)cc2)S(=O)(=O)N(C)C)cc1 | inactive: 81% |
| CCN(CC)S(=O)(=O)c1ccc2c(c1)c(=O)c(C(=O)NCCc1ccc(OC)c(OC)c1)cn2C | inactive: 79% |
| COc1cccc(CN(C(=O)c2oc3ccc(Br)cc3c2C)C2CCS(=O)(=O)C2)c1 (stereo not drawn) | inactive: 69% |
| COC(=O)CNC(c1ccccc1)c1cc(Br)ccc1NC(=O)c1ccc(Cl)cc1 (stereo not drawn) | inactive: 70% |
| Cc1nc2ccn(Cc3ccccc3)c(=O)c2cc1C(=O)Nc1ccc(F)cc1Cl | inactive: 73% |
| CCC(=O)N1CCc2cc(Br)cc(S(=O)(=O)NCc3cccc(OC)c3)c21 | inactive: 65% |
| Cc1coc2cc3oc(=O)c(CCC(=O)N4CCCCC4)c(C)c3cc12 | inactive: 83% |
| COc1cccc(NC(=O)Cn2c(=O)n(-c3ccccc3)c(=O)c3c4c(sc32)CCCC4)c1 | inactive: 112% |
| Cc1ccccc1-c1ccnc2c(-c3ccc(F)cc3)c(C)nn12 | active: -13% |
| Cc1ccc(-c2cc(N)n(Cc3cccc(Cl)c3)n2)cc1 | inactive: 65% |
| Cc1ccc(C)c(NC(=O)CCc2nc3cccnc3n2Cc2cccs2)c1 | inactive: 88% |
| CCN(CC)C(=O)CSc1nc(-c2ccccc2)cc(-c2ccc(OC)cc2)c1C#N | inactive: 77% |
| COc1ccc(C2Nc3ccccc3-n3c(-c4ccccc4)c4c(=O)n(C)c(=O)n(C)c4c32)cc1 (stereo not drawn) | active: -3% |
| c1ccc(C2CCC(N3CCNCC3)CC2)cc1 (stereo not drawn) | inactive: 113% |
| Cc1cc2nc(NC(=O)c3ccc(S(=O)(=O)N4CCOCC4)cc3)sc2cc1C | inactive: 88% |
| COc1ccccc1-c1noc(-c2ccc(NCc3ccccc3)c([N+](=O)[O-])c2)n1 | inactive: 74% |

| Structure (SMILES) | survival |
| --- | --- |
| COc1ccc(C)cc1NC(=O)CN(C)S(=O)(=O)c1ccc2c(c1)CCCN2C(C)=O | inactive: 68% |
| COCCCN1CN=C(NS(=O)(=O)c2ccc(NC(C)=O)cc2)NC1 | inactive: 74% |
| CCOc1ccc(NC(=O)Nc2cccc(C)n2)cc1 | inactive: 75% |
| Cc1ccc(-n2nc3c(N4CCC(C(=O)NCCc5ccccc5)CC4)nnc(C)c3c2C)cc1 | inactive: 74% |
| CCC(=O)N1CCc2cc(S(=O)(=O)N3CCN(c4ccccc4F)CC3)ccc21 | inactive: 82% |
| COc1cc(OC)c(NC(=O)Cn2nc(C)n3cccc3c2=O)cc1Cl | inactive: 90% |
| COc1ccc(C)cc1NC(=O)CN1C(=O)CSc2ccc(S(=O)(=O)N3CCCC3)cc21 | inactive: 93% |
| CC1=C(c2cccc(Cl)c2)S(=O)(=O)NC1=NCc1ccccc1C | inactive: 122% |
| COc1ccc(N2Cc3cccc(C(=O)Nc4ccc(C)cc4)c3C2=O)cc1 | inactive: 86% |
| CCOC(=O)c1sc2ccccc2c1S(=O)(=O)N1CCN(c2ccccc2F)CC1 | inactive: 70% |
| COc1cc(-c2noc(-c3ccc(N4CCCC4)c([N+](=O)[O-])c3)n2)cc(OC)c1OC | inactive: 84% |
| CC(=O)N1CCc2c(sc3c2c(=O)n(Cc2ccccc2)c(=O)n3Cc2cccc(Cl)c2)C1 | inactive: 116% |
| COc1ccc(-c2cn3nc(N4CCC(C(=O)NCc5cccc(Cl)c5)CC4)sc3n2)cc1 | inactive: 121% |
| COC(=O)c1ccc(Nc2nc(-c3ccc(C)cc3)nc3ccccc23)cc1 | active: 7% |
| CC1=Nc2cc(C(=O)NC3CCC(C)CC3)ccc2Sc2c(C)ccc(C)c21 (stereo not drawn) | inactive: 84% |
| COc1cc(C(=O)N2CCc3c([nH]c4ccccc34)C2c2ccc(F)cc2)cc(OC)c1OC (stereo not drawn) | inactive: 132% |
| CCC(=O)N1CCc2cc(CNC(=O)Cc3ccc(OC)c(OC)c3)ccc21 | inactive: 59% |
| Cc1ccccc1Cn1cnc2c(oc3ccccc32)c1=O | inactive: 79% |
| CCOc1ccccc1CNC(=O)C1CCN(C(=O)N2CCOc3ccc(Cl)cc32)CC1 | inactive: 84% |
| CCN(CC)C(=O)Cn1ncc2c([nH]c3ccc(C)cc32)c1=O | inactive: 57% |
| COc1ccc(NC(=O)c2ccc3c(c2)N(Cc2cccc(Cl)c2)C(=O)c2ccccc2S3(=O)=O)cc1Cl | inactive: 100% |
| FC(F)(F)c1ccc2c(c1)ncc1c(-c3ccccc3)nn(-c3ccccc3)c12 | inactive: 125% |

| Structure (SMILES) | survival |
| --- | --- |
| NC(=O)CN1C(=O)C(O)(CC(=O)/C=C\c2ccccc2)c2ccccc21 (stereo not drawn) | inactive: 112% |
| Cc1ccc(-n2nc(C(=O)NCc3ccc(F)cc3Cl)c3c4ccccc4n(C)c3c2=O)cc1 | inactive: 124% |
| Cc1cc(C)n2nc(-c3ccc(Cl)cc3)nc2n1 | inactive: 87% |
| Cc1cccc(N2CCN(c3nc4ccc(C(=O)c5ccccc5)cc4n4cnnc34)CC2C)c1 (stereo not drawn) | inactive: 67% |
| COCCNC(=O)c1cc(-c2ccccc2)on1 | inactive: 96% |
| CCOC(=O)c1c(NC(=O)CSc2cn(CCNC(=O)c3ccc(OC)c(OC)c3)c3ccccc23)sc2c1CCC2 | inactive: 85% |
| Cc1cn2c(=O)cc(COC(=O)c3cccc(NC(=O)COc4ccccc4)c3)nc2s1 | inactive: 47% |
| CC(C)Oc1ccc(CNC(=O)c2ccc(CS(=O)Cc3ccccc3Cl)o2)cc1 (stereo not drawn) | inactive: 113% |
| COc1ccc(OC)c(NC(=O)c2oc3c(c2C)-c2nn(Cc4ccc(Cl)cc4)cc2CC3)c1 | inactive: 119% |
| COC(=O)CN1C(=O)CSc2ccc(S(=O)(=O)Nc3ccccc3)cc21 | inactive: 81% |
| Cc1cccc(OCCSc2nc3ccc(NC(=O)COc4ccccc4C)cc3s2)c1 | inactive: 94% |
| CC(CC(=O)Nc1ccccc1)c1ccccc1 (stereo not drawn) | inactive: 106% |
| Cc1ccc2c(CC(=O)N3CCN(c4cccc(Cl)c4)CC3)coc2c1C | inactive: 79% |
| CC(=O)Nc1ccc(NC(=O)Cn2cc3c(n2)CCCCC3)cc1 | inactive: 122% |
| COCCN(Cc1ccco1)C(=O)c1cc2c(Cl)nc3ccc(C)cc3c2s1 | inactive: 79% |
| CCN(CC)CCCNC(=O)CSc1nc2nc(C)c(Cc3ccccc3C)c(C)n2n1 | inactive: 75% |
| COc1ccc(NC(=O)Cn2nc(SC)c(S(=O)(=O)c3ccc(C)cc3)c2N)cc1OC | inactive: 19% |
| O=c1[nH]c2cc3c(cc2cc1CN(CCN1CCOCC1)C(=S)Nc1ccccc1)OCCO3 | inactive: 109% |
| COc1ccc(-n2nc(C(=O)NCCCOC(C)C)c3c4ccccc4n(C)c3c2=O)cc1 | inactive: 78% |
| O=C(O)c1ccc2oc(=O)n(Cc3ccccc3)c2c1 | inactive: 70% |
| O=C(Nc1c(Cl)cccc1Cl)c1cccc2c1C(=O)N(C1CCCCC1)C2 | inactive: 79% |
| CCC(=O)N1CCc2cc(Br)cc(S(=O)(=O)CCC(=O)N(C)c3cccc(C)c3)c21 | inactive: 70% |

| Structure (SMILES) | survival |
| --- | --- |
| CCOc1ccc(NC(=O)CC2C(=O)N(c3ccc(F)cc3)C(=O)N2CCc2sccc2C)cc1 (stereo not drawn) | inactive: 73% |
| O=C(CN(C(=O)c1csnn1)c1ccccc1)NCc1ccc2c(c1)OCO2 | inactive: 114% |
| COc1ccc(CNc2nc3c(-c4ccc(C)cc4)nnn3c3ccccc23)cc1 | inactive: 77% |
| COc1ccc(C2C(=O)N(C3CCC(C)CC3)CC(=O)N2C2CCCCC2)cc1OC (stereo not drawn) | inactive: 64% |
| Cc1ccc2c(c1)C(O)(C(=O)NC(N)=O)C(=O)N2 (stereo not drawn) | inactive: 114% |
| Fc1ccccc1N1CCN(c2ncnc3c2nc2n3CCCCC2)CC1 | inactive: 73% |
| CCCS(=O)(=O)NCCc1csc2nc(-c3ccc(C)cc3)nn12 | inactive: 76% |
| CS(=O)(=O)Nc1ccccc1C(=O)O | inactive: 106% |
| Cc1occc1-c1nnc(SCC(=O)NCc2ccc3c(c2)OCO3)n1CC(C)C | inactive: 108% |
| CCOC(=O)c1cc2c(=O)n3ccccc3nc2n(CCCOC)c1=NC(=O)c1c(-c2ccccc2Cl)noc1C | inactive: 66% |
| COCCNS(=O)(=O)c1ccc(S(=O)(=O)N2CCCCC2)cc1 | inactive: 100% |
| Cc1nc2nc(C)c(NS(=O)(=O)c3ccc(F)cc3)c(=O)n2[nH]1 | inactive: 81% |
| Cc1ccccc1OCCCn1c(CCNC(=O)C2CCCCC2)nc2ccccc21 | inactive: 65% |
| O=C(Cn1cnc(S(=O)(=O)N2CCCC2)c1)Nc1cccc(F)c1 | inactive: 65% |
| CCOc1ccc(NC(=O)C2CCCN(c3nn4cc(-c5ccc(OC)cc5)nc4s3)C2)cc1 (stereo not drawn) | inactive: 132% |
| Cc1ccc2c(c1)nnn2C1CCN(CC(=O)N(c2ccccc2)c2ccccc2)CC1 | inactive: 105% |
| CC(=O)OC(C(=O)n1nc(C)cc1C)c1ccccc1 (stereo not drawn) | inactive: 113% |
| Cc1ccc(NC(=O)c2sc3nc4n(c(=O)c3c2C)CCCCC4)c(Br)c1 | inactive: 82% |
| CN(C(=O)Cn1c(=O)n(CCC(=O)NCc2ccc3c(c2)OCO3)c(=O)c2sccc21)c1ccccc1 | inactive: 93% |
| Cc1ccc(-n2ncc(C(=O)N3CCN(C4CCCCC4)CC3)c2C2CCN(C(=O)OC(C)(C)C)CC2)cc1C | inactive: 80% |
| Cc1cccc(N2CCN(C(=O)CCCn3c(=O)[nH]c4ccsc4c3=O)CC2)c1C | inactive: 66% |
| CCCCCCc1c(C)c2c(cc(C)c3c(C)c(C)oc32)oc1=O | inactive: 114% |

— PubChem BioAssay AID463173 (ICCB-Longwood Screening Facility, Harvard Medical School, 2010)
